PubChem BioAssay AID1508642 (National Center for Advancing Translational Sciences (NCATS), 2021)
The whole screen tested about 43,000 compounds, of which about 200 (0.47%) were called active. This list was built around the results that the source calls inconclusive (neither active nor inactive); the mix of calls is not that of the screen. The call rests on the fitted dose curve; in most records, active means well fitted cell-killing curve with a large enough effect; inconclusive means small, poorly fitted or top-dose-only effect, or effect the other way; inactive means flat fitted curve, though single readings scatter. A potency beside an inconclusive call is a rough fit, not a confirmed value.

Assay: Cell viability qHTS assay in S16 Pmp22-F2sN cells; further: nearly all actives have a fitted effect of over 65% in size
Settings: S16 Pmp22-F2sN Schwann cells viability, CellTiter-Glo, 24 h; activity change, negative = cytotoxicity: at 57.5 µM (top of the series)
How it was run: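 Used to flag compounds lowering reporter output through toxicity, this quantitative HTS measures ATP-based CellTiter-Glo luminescence in S16 Pmp22-F2sN Schwann cells after 24 h compound exposure at 37C.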
On the % scale 0 is the no-effect control and ±100 the full control effect; potency means the concentration at half of the fitted maximal effect; tags describe the fitted curve by direction and shape.

Row | SMILES | Potency | activity change, negative = cytotoxicity
1 | COc1ccc(NC(=O)Cc2ccc(NC(=O)N3CCCCc4ccccc43)cc2)c(OC)c1 | inconclusive: 0.141 µM [cytotoxic, single point] | 
2 | COc1ccc(CNS(=O)(=O)c2csc(C(N)=O)c2)cc1OC | inconclusive: 8.91 µM [cytotoxic, full curve, poor fit] | 
3 | Cn1nnnc1SCCCNCc1cc(Cl)ccc1OCc1ccccc1 | inconclusive: 31.6 µM [cytotoxic, single point] | 
4 | Cc1ccc(OCC(=O)Nc2ccc(C(=O)OCc3cc(=O)n4ccsc4n3)cc2)cc1C | inconclusive: 25.1 µM [cytotoxic, single point] | 
5 | CC(=O)c1ccc(N2CCN(S(=O)(=O)c3ccc(-c4cnc(C5CC5)o4)cc3)CC2)cc1 | inconclusive: 7.08 µM [cytotoxic, single point] | 
6 | CC1CCN(c2nc3c(S(=O)(=O)c4cccc(Cl)c4)nnn3c3ccsc23)CC1 | inconclusive: 39.8 µM [cytotoxic, single point] | 
7 | Cc1ccc(N2CCN(C(=O)CCS(=O)(=O)c3cc4c(cc3Cl)NC(=O)CO4)CC2)c(C)c1 | inconclusive: 17.8 µM [cytotoxic, partial curve, poor fit] | 
8 | Cc1ccccc1Nc1nnc(-c2ccc(C)c(S(=O)(=O)NCC3CCCO3)c2)c2ccccc12 (stereo not drawn) | inconclusive: 25.1 µM [cytotoxic, single point] | 
9 | Cc1ccc(N2CC(NC(=O)C3CCCC3)CC2=O)cc1 (stereo not drawn) | inconclusive: 0.0891 µM [rising, full curve, poor fit] | 
10 | CSc1oc(-c2ccc(F)cc2)nc1S(=O)(=O)c1ccc(Br)cc1 |  | inactive: -14.6%
11 | COc1cc(OC)c(NC(=O)CSc2nc3ccncc3[nH]2)cc1Cl | inconclusive: 28.2 µM [cytotoxic, single point] | 
12 | CCN(CC)c1ccc(-c2nc(-c3ccccn3)no2)cc1[N+](=O)[O-] |  | inactive: 0.836%
13 | Cc1ccc(-n2ncc3c(NCc4ccccc4)ncnc32)cc1C | inconclusive: 39.8 µM [cytotoxic, single point] | 
14 | CCCCCCn1c(/C=C/c2ccccc2)nc2ccccc21 |  | inactive: -20%
15 | Cc1ccc(/C=C/C(=O)Nc2ccc(Cl)cc2Cl)cc1 | inconclusive: 8.91 µM [cytotoxic, full curve, poor fit] | 
16 | CSc1cccc(NC(=O)c2ccc3c(c2)CCCN3S(C)(=O)=O)c1 |  | inactive: -24.5%
17 | COc1cc(OC)c(C2C=C(c3ccc(C)cc3)Nc3c(C(=O)Nc4ccccc4)cnn32)cc1OC (stereo not drawn) | inconclusive: 35.5 µM [cytotoxic, single point] | 
18 | Cc1cc(N2CCN(C)CC2)nc2ccc(NC(=O)Nc3ccccc3Cl)cc12 | inconclusive: 39.8 µM [cytotoxic, single point] | 
19 | COc1ccc(-n2c(=O)c3c(C)c(C)sc3n(Cc3ccc(F)cc3)c2=O)c(OC)c1 | inconclusive: 20 µM [cytotoxic, partial curve, poor fit] | 
20 | Cc1cc(C)cc(NC(=O)NCC2CCN(Cc3cc(C)ccc3C)CC2)c1 | inconclusive: 39.8 µM [cytotoxic, single point] | 
21 | COc1ccc(-c2noc(CSc3nnc(-c4ccncc4)n3-c3cccc(C)c3)n2)cc1OC |  | inactive: -2.59%

Row | SMILES | Potency | activity change, negative = cytotoxicity
22 | O=C(NC1(C(F)(F)F)N=C(c2ccccc2)N(C2CCCCC2)C1=O)c1ccccc1F (stereo not drawn) | inconclusive: 28.2 µM [cytotoxic, partial curve, poor fit] | 
23 | COc1ccc(NS(=O)(=O)c2cc3c4c(c2)CC(=O)N4CCC3)cc1Cl | inconclusive: 8.91 µM [cytotoxic, partial curve] | 
24 | CCn1c(CN2CCC(C)CC2)nc2cc(NC(=O)c3cccc([N+](=O)[O-])c3)ccc21 | inconclusive: 39.8 µM [cytotoxic, single point] | 
25 | Cc1ccc(C)c(NS(=O)(=O)c2ccc3c(c2)CCCN3C(=O)C2CCC2)c1 | inconclusive: 31.6 µM [cytotoxic, single point] | 
26 | COc1ccc(C(=O)Nc2ccc3c(c2)N(C)C(=O)c2ccccc2S3)cc1OC | inconclusive: 22.4 µM [cytotoxic, single point] | 
27 | CCc1ccccc1N1CC(c2nc3ccccc3n2CCC2CCCCC2)CC1=O (stereo not drawn) | inconclusive: 39.8 µM [cytotoxic, single point] | 
28 | Cc1nnc(N2CCC(C(=O)NCc3cccc(Cl)c3)CC2)c2nn(-c3ccccc3)c(C)c12 | inconclusive: 39.8 µM [cytotoxic, single point] | 
29 | CC(C)c1ccc(NC(=O)CSC2=Nc3ccccc3C3=NC(CC(=O)NCc4ccco4)C(=O)N23)cc1 (stereo not drawn) | inconclusive: 35.5 µM [cytotoxic, single point] | 
30 | Cc1ccc(NC(=O)CN2C=NS(=O)(=O)c3ccccc32)c(C)c1 |  | inactive: 1.79%
31 | COc1ccccc1-c1cc(C(F)(F)F)nc(S(=O)(=O)CCCC(=O)Nc2ccc(F)c(Cl)c2)n1 |  | inactive: 7.68%
32 | Cc1c(NS(C)(=O)=O)cccc1-c1nc2ccccc2s1 |  | inactive: -23.2%
33 | CCOC(=O)c1cnc2c(ccc3ccccc32)c1Nc1ccc(OC)c(OC)c1 | inconclusive: 12.6 µM [cytotoxic, partial curve] | 
34 | Cc1cccc(C2C=C(c3ccc(F)cc3)Nc3nc4ccccc4n32)c1 (stereo not drawn) |  | inactive: -26.8%
35 | Cc1ccc(NC(=O)Nc2nnc(SCC(=O)N3CCC(C)CC3)s2)cc1 | inconclusive: 14.1 µM [cytotoxic, partial curve, poor fit] | 
36 | CCN1CCN(c2cc(C)c3cc(NC(=O)/C=C/c4cccc(Cl)c4)ccc3n2)CC1 | inconclusive: 35.5 µM [cytotoxic, single point] | 
37 | COc1cccc(C2CC(=O)N3CN(C4CCCCC4)CSC3=C2C#N)c1 (stereo not drawn) | inconclusive: 28.2 µM [cytotoxic, single point] | 
38 | CCOc1ccccc1CN(CCc1ccc2c(c1)OCO2)Cc1cccc(OC)c1OC | inconclusive: 15.8 µM [cytotoxic, partial curve, poor fit] | 
39 | CCN1CCC(N(Cc2ccc3c(c2)OCO3)C(=O)Nc2ccccc2OC)CC1 |  | inactive: 0.879%
40 | Cc1cccc(-c2nc(Cn3c(SCc4cc(C)ccc4C)nc4ccncc43)c(C)o2)c1 |  | inactive: -1.29%
41 | O=C(CCCn1c2ccccc2c(=O)c2ccccc21)Nc1ccc(F)cc1Cl | inconclusive: 39.8 µM [cytotoxic, single point] | 
42 | COc1cc(CN(C(=O)c2oc3ccccc3c2C)C2CCS(=O)(=O)C2)cc(OC)c1OC (stereo not drawn) | inconclusive: 35.5 µM [cytotoxic, single point] | 

Row | SMILES | Potency | activity change, negative = cytotoxicity
43 | COc1ccc(OC)c(CNC(=O)CN2C(=O)CCn3nc(-c4cn(C)c5ccccc45)cc32)c1 |  | inactive: 2.98%
44 | N#Cc1ccc(NS(=O)(=O)c2ccc(-c3cnc(C4CC4)o3)cc2)cc1 | inconclusive: 0.708 µM [cytotoxic, partial curve, poor fit] | 
45 | Cc1ccc(C)n1-c1nnc(N2CCCC(C(=O)NCc3ccccc3)C2)s1 (stereo not drawn) |  | inactive: -6.98%
46 | CNC(=O)c1ccc(Nc2nnc(-c3ccc(C)c(S(=O)(=O)N4CCOCC4)c3)c3ccccc23)cc1 | inconclusive: 25.1 µM [cytotoxic, single point] | 
47 | O=C(Nc1ccc(Br)cc1)c1cc2nc(-c3ccccc3)cc(-c3ccccc3)n2n1 |  | inactive: 5.96%
48 | Cc1ccc(NC(=O)c2cc(S(=O)(=O)NC3CCCCCC3)ccc2F)cc1F | inconclusive: 35.5 µM [cytotoxic, single point] | 
49 | CCNC(=O)C1CCN(c2nc3ccccc3nc2C(F)(F)F)CC1 | inconclusive: 14.1 µM [rising, partial curve, poor fit] | 
50 | Cc1ccc(CN2C(=O)C(O)(CC(=O)c3ccc(C)cc3)c3ccccc32)cc1 (stereo not drawn) | inconclusive: 6.31 µM [cytotoxic, full curve] | 
51 | CCOC(=O)C1CCCN(C(=O)Cn2c(=O)cc(C)c3c(C)nn(C)c32)C1 (stereo not drawn) | inconclusive: 11.2 µM [cytotoxic, partial curve, poor fit] | 
52 | COc1ccc(C(=O)c2cnc3ccc(C)cc3c2S(=O)(=O)c2ccccc2)cc1 | inconclusive: 39.8 µM [cytotoxic, single point] | 
53 | COc1ccccc1N1CCN(S(=O)(=O)c2ccc(-c3ccno3)cc2OC)CC1 | inconclusive: 20 µM [cytotoxic, partial curve, poor fit] | 
54 | CC(C)c1ccc(Cc2cn3cc(-c4cc5ccccc5oc4=O)nc3s2)cc1 | inconclusive: 0.316 µM [rising, full curve, poor fit] | 
55 | COc1ccc(NC(=O)Cn2nc3c(cc2=O)CCCC3)cc1Cl |  | inactive: 4.1%
56 | CCCCc1nn2c(=O)cc(CN(CC)c3ccccc3)nc2s1 | inconclusive: 20 µM [cytotoxic, partial curve] | 
57 | COc1ccc(OC)c(C2=NS(=O)(=O)N(C)C(C(=O)Nc3ccc(C(C)=O)cc3)=C2)c1 | inconclusive: 39.8 µM [cytotoxic, single point] | 
58 | COC(=O)c1sc(-c2ccccc2)cc1NC(=O)Nc1ccccc1Cl | inconclusive: 28.2 µM [cytotoxic, single point] | 
59 | CN(C)c1cccc(C(=O)Nc2nc3ccc(S(=O)(=O)NC(C)(C)C)cc3s2)c1 | inconclusive: 39.8 µM [cytotoxic, single point] | 
60 | CC(C)(C)c1ccc(C(=O)Nc2ccc(C(=O)OCc3cc(=O)n4ccsc4n3)cc2)cc1 | inconclusive: 31.6 µM [cytotoxic, single point] | 
61 | Cc1ccccc1NS(=O)(=O)c1ccc2c(c1)NC(=O)CCS2 |  | inactive: 2.49%
62 | O=C(Nc1cc2c(cc1C(=O)c1ccc(Br)cc1)OCCO2)c1ccc(Cl)cc1 |  | inactive: 2.29%
63 | Cc1oc(-c2ccccc2F)nc1CS(=O)(=O)CC(=O)N1CCN(c2ccc(Cl)cc2)CC1 | inconclusive: 10 µM [cytotoxic, partial curve] | 
